The target of this assay is human TrkA on the surface of TF-1 cells (human), P04629. Description: cell-based or functional assay.
Sequence of human TrkA on the surface of TF-1 cells (human), P04629 (P04629 33-796): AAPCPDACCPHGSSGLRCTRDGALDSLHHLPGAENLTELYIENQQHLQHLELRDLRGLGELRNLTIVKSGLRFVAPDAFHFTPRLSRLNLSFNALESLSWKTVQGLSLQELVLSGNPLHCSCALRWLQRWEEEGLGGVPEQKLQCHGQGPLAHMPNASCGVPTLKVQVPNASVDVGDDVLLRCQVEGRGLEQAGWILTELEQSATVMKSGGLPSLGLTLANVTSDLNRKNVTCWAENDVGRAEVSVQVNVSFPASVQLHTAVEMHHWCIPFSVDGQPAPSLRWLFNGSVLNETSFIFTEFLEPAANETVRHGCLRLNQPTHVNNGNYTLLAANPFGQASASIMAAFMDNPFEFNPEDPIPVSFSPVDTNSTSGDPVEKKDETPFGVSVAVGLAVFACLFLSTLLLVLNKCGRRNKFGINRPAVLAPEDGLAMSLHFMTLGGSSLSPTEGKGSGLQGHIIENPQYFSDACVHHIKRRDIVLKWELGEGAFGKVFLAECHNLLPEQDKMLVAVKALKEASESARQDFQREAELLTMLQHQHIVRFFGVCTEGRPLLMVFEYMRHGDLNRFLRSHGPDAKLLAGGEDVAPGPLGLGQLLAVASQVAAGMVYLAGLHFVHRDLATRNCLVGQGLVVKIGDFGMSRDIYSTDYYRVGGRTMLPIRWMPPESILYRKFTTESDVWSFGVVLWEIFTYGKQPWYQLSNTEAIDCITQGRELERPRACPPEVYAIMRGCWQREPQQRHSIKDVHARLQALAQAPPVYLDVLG

B1: GBR VH5(V37A)VL1 (antibody, human IgG1, kappa)
heavy: EVKLLESGGGLVQPGGSLRLSCAASGFTFSTYTMSWARQTPGKRLEWVAYISKGGGSTYYPDTVKGRFTISRDNSKNTLYLQMNSLRAEDTAVYYCARGAMYGNDFFYPMDYWGQGTTVTVSS[letters of human IgG1 constant region not shown]
light: EIVLTQSPATLSLSPGERATLSCSASSSVSYMHWYQQKPGQAPRLLIYTTSNLASGIPARFSGSGSGTDFTLTISSLEPEDFAVYYCHQWSSYPWTFGQGTKLEIKRTVAAPSVFIFPPSDEQLKSGTASVVCLLNNFYPREAKVQWKVDNALQSGNSQESVTEQDSKDSTYSLSSTLTLSKADYEKHKVYACEVTHQGLSSPVTKSFNRGEC
In the case of B1, the TF-1 cell proliferation assay IC50 (beta-NGF induced proliferation) amounted to 0.075 µg/mL; the TF-1 cell proliferation assay, potency against BXhVH5VL1 came to 10 fold; the TF-1 cell proliferation assay, potency against MNAC13 was 3 fold.

B2: GBR VH5(V37A)VL3 (antibody, human IgG1, kappa)
heavy: EVKLLESGGGLVQPGGSLRLSCAASGFTFSTYTMSWARQTPGKRLEWVAYISKGGGSTYYPDTVKGRFTISRDNSKNTLYLQMNSLRAEDTAVYYCARGAMYGNDFFYPMDYWGQGTTVTVSS[letters of human IgG1 constant region not shown]
light: QIVLTQSPATLSLSPGERATLSCSASSSVSYMHWYQQKPGQSPRLLIYTTSNLASGIPSRFSGSGSGTFYTLTISSLEPEDFAVYYCHQWSSYPWTFGGGTKLEIKRTVAAPSVFIFPPSDEQLKSGTASVVCLLNNFYPREAKVQWKVDNALQSGNSQESVTEQDSKDSTYSLSSTLTLSKADYEKHKVYACEVTHQGLSSPVTKSFNRGEC
Turning to B2, the TF-1 cell proliferation assay IC50 (beta-NGF induced proliferation) was found to be 0.22 µg/mL.

B3: GBR VH5(K3Q,V37A)VL1 IGHG4 S228P (antibody, human IgG4 S228P, kappa)
heavy: EVQLLESGGGLVQPGGSLRLSCAASGFTFSTYTMSWARQTPGKRLEWVAYISKGGGSTYYPDTVKGRFTISRDNSKNTLYLQMNSLRAEDTAVYYCARGAMYGNDFFYPMDYWGQGTTVTVSSASTKGPSVFPLAPCSRSTSESTAALGCLVKDYFPEPVTVSWNSGALTSGVHTFPAVLQSSGLYSLSSVVTVPSSSLGTKTYTCNVDHKPSNTKVDKRV[letters of human IgG4 Fc with S228P (EU numbers) not shown]
light: EIVLTQSPATLSLSPGERATLSCSASSSVSYMHWYQQKPGQAPRLLIYTTSNLASGIPARFSGSGSGTDFTLTISSLEPEDFAVYYCHQWSSYPWTFGQGTKLEIKRTVAAPSVFIFPPSDEQLKSGTASVVCLLNNFYPREAKVQWKVDNALQSGNSQESVTEQDSKDSTYSLSSTLTLSKADYEKHKVYACEVTHQGLSSPVTKSFNRGEC
Consider B3, for which the TF-1 cell proliferation assay IC50 (beta-NGF induced proliferation) stood at 0.15 µg/mL.

B4: GBR VH5(K3Q,V37A)VL1 (antibody, human IgG1, kappa)
heavy: EVQLLESGGGLVQPGGSLRLSCAASGFTFSTYTMSWARQTPGKRLEWVAYISKGGGSTYYPDTVKGRFTISRDNSKNTLYLQMNSLRAEDTAVYYCARGAMYGNDFFYPMDYWGQGTTVTVSS[letters of human IgG1 constant region not shown]
light: EIVLTQSPATLSLSPGERATLSCSASSSVSYMHWYQQKPGQAPRLLIYTTSNLASGIPARFSGSGSGTDFTLTISSLEPEDFAVYYCHQWSSYPWTFGQGTKLEIKRTVAAPSVFIFPPSDEQLKSGTASVVCLLNNFYPREAKVQWKVDNALQSGNSQESVTEQDSKDSTYSLSSTLTLSKADYEKHKVYACEVTHQGLSSPVTKSFNRGEC
B4: the TF-1 cell proliferation assay IC50 (beta-NGF induced proliferation) is 0.15 µg/mL.

B5: BXhVH5VL1 (antibody, human IgG1, kappa)
heavy: EVKLLESGGGLVQPGGSLRLSCAASGFTFSTYTMSWVRQTPGKRLEWVAYISKGGGSTYYPDTVKGRFTISRDNSKNTLYLQMNSLRAEDTAVYYCARGAMYGNDFFYPMDYWGQGTTVTVSS[letters of human IgG1 constant region not shown]
light: EIVLTQSPATLSLSPGERATLSCSASSSVSYMHWYQQKPGQAPRLLIYTTSNLASGIPARFSGSGSGTDFTLTISSLEPEDFAVYYCHQWSSYPWTFGQGTKLEIKRTVAAPSVFIFPPSDEQLKSGTASVVCLLNNFYPREAKVQWKVDNALQSGNSQESVTEQDSKDSTYSLSSTLTLSKADYEKHKVYACEVTHQGLSSPVTKSFNRGEC
For the molecule B5, the TF-1 cell proliferation assay IC50 (beta-NGF induced proliferation) amounted to 0.73 µg/mL.

B6: GBR VH3(V37A)VL3 (antibody, human IgG1, kappa)
heavy: EVQLLESGGGLVQPGGSLRLSCAASGFTFSTYTMSWARQTPGKRLEWVAYISKGGGSTYYPDTVKGRFTISRDNSKNTLYLQMNSLRAEDTAVYYCAKGAMYGNDFFYPMDYWGQGTTVTVSS[letters of human IgG1 constant region not shown]
light: QIVLTQSPATLSLSPGERATLSCSASSSVSYMHWYQQKPGQSPRLLIYTTSNLASGIPSRFSGSGSGTFYTLTISSLEPEDFAVYYCHQWSSYPWTFGGGTKLEIKRTVAAPSVFIFPPSDEQLKSGTASVVCLLNNFYPREAKVQWKVDNALQSGNSQESVTEQDSKDSTYSLSSTLTLSKADYEKHKVYACEVTHQGLSSPVTKSFNRGEC
Consider B6, for which the TF-1 cell proliferation assay IC50 (beta-NGF induced proliferation) is 0.29 µg/mL.

B7: GBR VH3(V37A)VL1 (antibody, human IgG1, kappa)
heavy: EVQLLESGGGLVQPGGSLRLSCAASGFTFSTYTMSWARQTPGKRLEWVAYISKGGGSTYYPDTVKGRFTISRDNSKNTLYLQMNSLRAEDTAVYYCAKGAMYGNDFFYPMDYWGQGTTVTVSS[letters of human IgG1 constant region not shown]
light: EIVLTQSPATLSLSPGERATLSCSASSSVSYMHWYQQKPGQAPRLLIYTTSNLASGIPARFSGSGSGTDFTLTISSLEPEDFAVYYCHQWSSYPWTFGQGTKLEIKRTVAAPSVFIFPPSDEQLKSGTASVVCLLNNFYPREAKVQWKVDNALQSGNSQESVTEQDSKDSTYSLSSTLTLSKADYEKHKVYACEVTHQGLSSPVTKSFNRGEC
With B7, the TF-1 cell proliferation assay IC50 (beta-NGF induced proliferation) worked out at 0.15 µg/mL.
